Measured values reported in PubChem BioAssay AID1159614 (National Center for Advancing Translational Sciences (NCATS), 2016).
Hit rate of the full screen: of about 45,000 compounds, about 65 (0.1%) were called active. The call rests on the fitted dose curve; in most records, active means well fitted activation curve with a large enough effect; inconclusive means small, poorly fitted or top-dose-only effect; inactive means no such curve, though single readings can be large or run the other way. The list shows a part of the results.

What follows are molecules tested against Galactocerebrosidase (Homo sapiens) (UniProt P54803) (assay: A Novel Cell-Based Assay to Identify Small Molecules for B -Galactocerebrosidase). Details: 145M-Twi-hGALC-G270D cells (Twitcher mouse brain line with human GALC G270D), HMU-beta-Gal fluorescence, 48 h; series mostly up to 57.5 µM; activation: at the top concentration.
Chain of UniProt P54803 (P54803 whole entry, looked up): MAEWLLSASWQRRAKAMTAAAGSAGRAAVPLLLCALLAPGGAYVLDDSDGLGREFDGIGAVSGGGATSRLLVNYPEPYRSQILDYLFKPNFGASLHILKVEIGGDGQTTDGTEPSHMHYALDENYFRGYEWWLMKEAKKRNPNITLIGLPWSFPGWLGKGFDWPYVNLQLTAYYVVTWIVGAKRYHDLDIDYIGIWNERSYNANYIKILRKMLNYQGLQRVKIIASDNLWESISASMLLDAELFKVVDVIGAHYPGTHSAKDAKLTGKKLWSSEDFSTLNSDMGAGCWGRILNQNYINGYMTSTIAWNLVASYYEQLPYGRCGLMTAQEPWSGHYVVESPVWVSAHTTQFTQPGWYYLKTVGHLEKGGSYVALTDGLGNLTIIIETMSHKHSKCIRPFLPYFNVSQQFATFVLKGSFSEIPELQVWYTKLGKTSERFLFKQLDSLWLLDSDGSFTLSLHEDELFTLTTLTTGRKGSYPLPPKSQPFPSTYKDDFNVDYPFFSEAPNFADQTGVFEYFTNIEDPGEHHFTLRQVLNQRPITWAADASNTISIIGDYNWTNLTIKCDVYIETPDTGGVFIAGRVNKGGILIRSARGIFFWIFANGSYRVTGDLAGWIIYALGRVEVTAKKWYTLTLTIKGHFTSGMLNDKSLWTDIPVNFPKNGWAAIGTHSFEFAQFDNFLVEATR
Method in brief: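 Fluorogenic HMU-b-Gal hydrolysis (0.1 mM final, pH 5.2 citrate-phosphate with 1 mg/mL sodium taurocholate; carbonate stop buffer) measures mutant GALC activity after compound treatment of live 145M-Twi Twitcher brain cells stably carrying human GALC-G270D, with wild-type GALC line alongside; activation sought.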
Further: 0% is about no effect; nearly all actives have a fitted effect of over 65% in size.

activation, inactive:
CS(=O)(=O)N1CCc2cc(C(=O)NCc3ccccc3)ccc21 -11.7%, Oc1cccc(Nc2ncnc3sc4c(c23)CCCC4)c1 -10.2%, Cc1cccc(CN2C(=O)c3ccccc3S(=O)(=O)c3ccc(C(=O)N4CCN(c5cc(C)ccc5C)CC4)cc32)c1 -13.3%, COc1cccc(C(=O)n2nc(-c3ccco3)nc2NCc2cccs2)c1 -10.9%, CCc1ccc(-c2cc3c(N4CCN(c5ccccc5)CC4)nccn3n2)cc1 0.733%, COc1ccc(Br)cc1CNC(=O)c1ccc2c(c1)nc1n2CCCCC1 -0.634%, Cc1c(C(=O)NCc2ccccc2Cl)sc2nc3n(c(=O)c12)CCC3 -15.9%, Cc1cc(C)cc(N2CCn3c2nc2c3c(=O)n(CCc3ccccc3)c(=O)n2C)c1 -16.3%, COc1ccc(N(CC(=O)NCc2ccc(C)cc2)S(=O)(=O)c2c(C)[nH]c(=O)[nH]c2=O)cc1 -16.5%, CC(=O)N/N=C/c1ccc([N+](=O)[O-])o1 -13.6%, Cc1cccc(-c2nc3nc(C)cc(N4CCN(c5ccccc5)CC4)n3n2)c1 -12%, COc1ccc(N2CCN(C(=O)CCn3cnc4onc(-c5ccc(F)cc5)c4c3=O)CC2)cc1 -33.7%, COc1ccc(NS(=O)(=O)c2ccc(NS(=O)(=O)c3ccc4c(c3)OCCO4)cc2)cc1 -8.96%, CC(C)(C)C1CCc2c(sc(NC(=O)c3ccncc3)c2C(=O)Nc2ccccc2Cl)C1 (stereo not drawn) -5.73%, COc1cccc(N2CCN(Cc3nnc(-c4ccc5c(c4)OCO5)o3)CC2)c1 -8.35%, COc1ccc(NC(=O)N2CCN(c3cc(-c4noc(C)n4)ccc3C)CC2)c(OC)c1 -8.51%, Cc1ccc(-c2nc3c4ccccc4n(Cc4cccc(Cl)c4)c(=O)n3n2)cc1 4.78%, CCOC(=O)Cc1ccc(NC(=O)N2CC(CC)Oc3ccccc32)cc1 (stereo not drawn) -11.7%, COc1ccc2nc(N3CCN(C(=O)c4ccco4)CC3)sc2c1 -12.7%, COc1ccc(OC)c(CNC(=O)C2COc3ccccc3C2)c1 (stereo not drawn) -5.26%, CCc1ccc(S(=O)(=O)c2nnn3c2nc(N2CCCC(C)C2)c2cc(Cl)ccc23)cc1 (stereo not drawn) -12.8%, CCN1CCN(CCCNC(=O)Cn2nc(C)n3c(cc4cc(C)ccc43)c2=O)CC1 -6.44%, CCCc1ccc(NC(=O)C2CCN(c3cnccn3)CC2)cc1 -8.06%, Cc1ccc(NC(=O)Cc2ccc(NC(=O)N3CCCCc4ccccc43)cc2)cc1 -9.53%, Clc1ccc(CSc2nc3ncccc3[nH]2)cc1 -5.31%, Cc1nc2ccccc2n1CCc1nc2c3ccccc3nc(SCC(=O)Nc3ccc(C(C)C)cc3)n2n1 -1.79%, O=C(Nc1nonc1-c1ccc(Br)cc1)c1ccco1 -1.95%, COc1ccc(NC(=O)c2ccco2)cc1NC(=O)COc1ccc(C)cc1C -10.3%
